The other results are listed elsewhere or left out.
system: PF3D7_0420300 AP2 domain 1 (GST-tagged); assay: gcPBM binding intensity (ln(normalized median fluorescence intensity)); higher = stronger DNA binding
Method in brief: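 Binding intensity is the highest Masliner-normalised natural-log median intensity over replicate spots in either probe orientation. To obtain it, GST-tagged P. falciparum DNA-binding domains made in E. coli were incubated for 1 h on an Agilent 4 × 180k array of primer-extended double-stranded 36-bp intergenic genomic probes plus negative controls. Detection used Alexa488 anti-GST antibody with scanning at 488 nm.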

Row | Sequence | gcPBM binding intensity (ln)
1 | TTTTTTTTTTGAAGTGCATGTTACGATGAAAAAAAA [TGCATGCA_site64] | 8.82
2 | TTTTTTTTTAAATGTTGTACATTATATTTGTGTATA [XGTACX_site8354] | 9.21
3 | CTAAATAACTTAAGGTGTACGTTTCCAATAAAAAAA [XGTACX_site1742] | 9.02
4 | ACATATAAAATGATGCGTACATATTTGATCATATAC [XGTACX_site153] | 9.28
5 | CACGCACGCAGACACACACACACACGCACATATATA [CACACA_site6303] | 10.3
6 | ACAACAATTCACTTGATGCACTAACCAAAAAAATAA | 9.11
7 | AAAAAAATAATCATCACACACGGAGAATGTCCAATA [CACACA_site5305] | 9.6
8 | ATTAAAATATAAGTCACACATATATATATATATATA [CACACA_site6145] | 9.08
9 | TATTTTTTTTTATTTTTTTTTATTTTGTTTTTTTAT [TGCATGCA_negctrl_site315] | 9.34
10 | ATATATTTTCCTTCAAGTACACATATAAATGTGTAT [XGTACX_site6633] | 9.28
11 | ACATATATTTTTTTTTGTACATATAAATATATATAT [XGTACX_site6491] | 9.32
12 | AATATAATAATATTTTGTACATATCCTATGTATGAG [XGTACX_site8601] | 9.21
13 | AACGTAAAACATATCTATCAAAATAAATCATTAATC [TGCATGCA_negctrl_site68] | 9.33
14 | AATGGAAATTTTTCTTGTACACATATATGACATGTT [XGTACX_site1691] | 9.19
15 | TTTTTTTTTACTGCATGTACTTGATGTAAATAAATT [XGTACX_site3045] | 9.2
16 | AATATGACGTAGTGGTGTACACACATGGTACCTTTA [XGTACX_site3147] | 9.63
17 | TATAGAATAATCTATAAACACACAAACACAACAAAA [CACACA_site9374] | 9.7
18 | TTAGAACTATTTTATACATGCAGTTATTTAATACTT [TGCATGCA_site1039] | 9.17
19 | TTATAAATATAATTTTGTACATATATATATATATAC [XGTACX_site5064] | 9.13
20 | CACATATAAATATTAACACACATAATGAGTTATATA [CACACA_site7316] | 9.33
21 | AAGAAAAAAAAAAAAAGTACATGCAATATGGATCTT [XGTACX_site3106] | 9.62
22 | TTATACCATATTTATAGTACGTACAAATAAATCAAT [XGTACX_site4975] | 9.24

Row | Sequence | gcPBM binding intensity (ln)
23 | AAACAACATATATTAATATGTACATATATATAGATA [GTGCAC_negctrl_site229] | 9.4
24 | AATAATTGTTAAAGCTGTACAATACTTATATAAGAA [XGTACX_site5729] | 9.24
25 | TTTTTATTGTTATAGTTATAATATATTATTTGATTA [XGTACX_negctrl_site27] | 9.26
26 | TTTTTTTTTTTTGTAACACACAATAATATAACATTA [CACACA_site3411] | 9.23
27 | AATGTTTATTAACATTGTACTTATAATATGTCACAA [XGTACX_site2974] | 9.01
28 | AATAATAAAGATCAATGTACATAATAAAAAAAAAAA [XGTACX_site2692] | 9.34
29 | TATCATGGGTGTATTTCACACACGGATAATCATTTA [CACACA_site8211] | 9.31
30 | AAATAATGGTTAGCTACACACAAAGCATTTTTTGAA [CACACA_site1016] | 9.5
31 | TTTTAAAAAGATCATTAAAAAAAAAAAAAGAACAAA [CACACA_negctrl_site528] | 9.11
32 | ATAATATAACAATACGCACACGTATACAAAAAAAAA [CACACA_site5703] | 9.46
33 | AAAATACAAACAAGTGGTACTGTTTATAAATGGTTG [XGTACX_site1503] | 9.36
34 | TGTCTTGTAAATTATTGTACTATTTAAAGTATACAA [XGTACX_site7864] | 9.05
35 | TTGTATATATTTATATGTACATATATTACTTTTGCT [XGTACX_site2449] | 9.17
36 | TATCCTAACTTTAGATGTACACAAATAAAAAAAAAA [XGTACX_site4491] | 8.89
37 | CCATATAAAATATAAAAACACACGTATATATACATA [CACACA_site1511] | 9.54
38 | TGTACATATATATAGATATATATAGATATATATATA [CACACA_negctrl_site1678] | 9.11
39 | ACAAAATGTAGAAAATGTACAAAATTAACAAAAGAA [XGTACX_site5019] | 9.59
40 | ATTCAATCTTTTAATACACACAATTTATTTCAAAAC [CACACA_site835] | 9.34
41 | GTGAAATATGCAAACACACACGAGAAAAATGTATAT [CACACA_site7488] | 9.74
42 | TTTTTGCCATATTACACACACACATGTAAACCCCCT [CACACA_site1647] | 10.1
43 | CAAAACAAAACGTATGCACACAATTAATATATTAAA [CACACA_site3405] | 9.53
44 | TATTTTTTTCTTACATACTAATTTGGTACTCACATA [TGCATGCA_negctrl_site81] | 9.23
